Structures can show the parent of a compound that is named as a salt.
Molecular target: isolated recombinant JAK1 kinase domain (Homo sapiens (Human), UniProt P23458)
Test: biochemical

SMILES | Ki [nM]
CC(=O)N1CCN(c2cccn3nc(Nc4ccc(C(=O)N(C)C5CCN(C)CC5)cc4)nc23)CC1 [Example 1-10, 4-[[8-(4-acetylpiperazin-1-yl)-[1,2,4]triazolo[1,5-a]pyridin-2-yl]amino]-N-methyl-N-(1-methyl-4-piperidyl)benzamide] | 321
CN1CCC(N(C)C(=O)c2ccc(Nc3nc4c(N5CCC(C#N)CC5)cccn4n3)cc2)CC1 [Example 1-11, 4-[[8-(4-cyano-1-piperidyl)-[1,2,4]triazolo[1,5-a]pyridin-2-yl]amino]-N-methyl-N-(1-methyl-4-piperidyl)benzamide] | 25.9
CN1CCC(N(C)C(=O)c2ccc(Nc3nc4c(N5CCCCC5)cccn4n3)cc2)CC1 [Example 1-12, N-methyl-N-(1-methyl-4-piperidyl)-4-[[8-(1-piperidyl)-[1,2,4]triazolo[1,5-a]pyridin-2-yl]amino]benzamide; dihydrochloride] | 406
CN1CCC(N(C)C(=O)c2ccc(Nc3nc4c(N5CCN(c6ccccc6)CC5)cccn4n3)cc2)CC1 [Example 1-13, N-methyl-N-(1-methyl-4-piperidyl)-4-[[8-(4-phenylpiperazin-1-yl)-[1,2,4]triazolo[1,5-a]pyridin-2-yl]amino]benzamide] | 58.4
CN1CCC(N(C)C(=O)c2ccc(Nc3nc4c(N5CCC(O)(c6ccc(Cl)cc6)CC5)cccn4n3)cc2)CC1 [Example 1-17, 4-[[8-[4-(4-chlorophenyl)-4-hydroxy-1-piperidyl]-[1,2,4]triazolo[1,5-a]pyridin-2-yl]amino]-N-methyl-N-(1-methyl-4-piperidyl)benzamide] | 2.91
CN1CCC(N(C)C(=O)c2ccc(Nc3nc4c(N5CCC(O)(c6cccnc6)CC5)cccn4n3)cc2)CC1 [Example 1-19, 4-[[8-[4-hydroxy-4-(3-pyridyl)-1-piperidyl]-[1,2,4]triazolo[1,5-a]pyridin-2-yl]amino]-N-methyl-N-(1-methyl-4-piperidyl)benzamide] | 178
CN1CCC(N(C)C(=O)c2ccc(Nc3nc4c(N5CCC(O)(c6ccc(F)cc6)CC5)cccn4n3)cc2)CC1 [Example 1-37, 4-[[8-[4-(4-fluorophenyl)-4-hydroxy-1-piperidyl]-[1,2,4]triazolo[1,5-a]pyridin-2-yl]amino]-N-methyl-N-(1-methyl-4-piperidyl)benzamide] | 23.6
CC(C)c1ccc(C2(O)CCN(c3cccn4nc(Nc5ccc(C(=O)N(C)C6CCN(C)CC6)cc5)nc34)CC2)cc1 [Example 1-38, 4-[[8-[4-hydroxy-4-(4-isopropylphenyl)-1-piperidyl]-[1,2,4]triazolo[1,5-a]pyridin-2-yl]amino]-N-methyl-N-(1-methyl-4-piperidyl)benzamide] | 6.86
CNC1CN(C(=O)c2ccc(Nc3nc4c(N5CCC(O)(c6ccc(Cl)cc6)CC5)cccn4n3)cc2)C1 [Example 1-47, [4-[[8-[4-(4-chlorophenyl)-4-hydroxy-1-piperidyl]-[1,2,4]triazolo[1,5-a]pyridin-2-yl]amino]phenyl]-[3-(methylamino)azetidin-1-yl]methanone] | 1.35
CC(C)(CNC(=O)c1ccc(Nc2nc3c(N4CCC(O)(c5ccc(Cl)cc5)CC4)cccn3n2)cc1)N1CCOCC1 [Example 1-94, 4-[[8-[4-(4-chlorophenyl)-4-hydroxy-1-piperidyl]-[1,2,4]triazolo[1,5-a]pyridin-2-yl]amino]-N-(2-methyl-2-morpholino-propyl)benzamide] | 2.58
NCCNC(=O)c1ccc(Nc2nc3c(N4CCC(O)(c5ccc(Cl)cc5)CC4)cccn3n2)cc1 [Example 1-175, N-(2-aminoethyl)-4-[[8-[4-(4-chlorophenyl)-4-hydroxy-1-piperidyl]-[1,2,4]triazolo[1,5-a]pyridin-2-yl]amino]benzamide] | 1.74
O=C(c1ccc(Nc2nc3c(N4CCC(O)(c5ccc(Cl)cc5)CC4)cccn3n2)cc1)N1CCNCC1 [Example 1-177, [4-[[8-[4-(4-chlorophenyl)-4-hydroxy-1-piperidyl]-[1,2,4]triazolo[1,5-a]pyridin-2-yl]amino]phenyl]-piperazin-1-yl-methanone] | 2.08
